The record followed here is the supplement of paper PMC11876631.

The chains are these.
B1: argC V75D (protein)
chain: MLNTLIVGASGYAGAELVTYVNRHPHMNITALTVSAQSNDAGKLISDLHPQLKGIVDLPLQPMSDISEFSPGVDDVFLATAHEVSHDLAPQFLEAGCVVFDLSGAFRVNDATFYEKYYGFTHQYPELLEQAAYGLAEWCGNKLKEANLIAVPGCYPTAAQLALKPLIDADLLDLNQWPVINATSGVSGAGRKAAISNSFCEVSLQPYGVFTHRHQPEIATHLGADVIFTPHLGNFPRGILETITCRLKSGVTQAQVAQVLQQAYAHKPLVRLYDKGVPALKNVVGLPFCDIGFAVQGEHLIIVATEDNLLKGAAAQAVQCANIRFGYAETQSLI
B2: ftsW I124D (protein)
chain: MRLSLPRLKMPRLPGFSILVWISTALKGWVMGSREKDTDSLIMYDRTLLWLTFGLAAIGFIMVTSASMPIGQRLTNDPFFFAKRDGVYLILAFILAIITLRLPMEFWQRYSATMLLGSIILLMDVLVVGSSVKGASRWIDLGLLRIQPAELTKLSLFCYIANYLVRKGDEVRNNLRGFLKPMGVILVLAVLLLAQPDLGTVVVLFVTTLAMLFLAGAKLWQFIAIIGMGISAVVLLILAEPYRIRRVTAFWNPWEDPFGSGYQLTQSLMAFGRGELWGQGLGNSVQKLEYLPEAHTDFIFAIIGEELGYVGVVLALLMVFFVAFRAMSIGRKALEIDHRFSGFLACSIGIWFSFQALVNVGAAAGMLPTKGLTLPLISYGGSSLLIMSTAIMMLLRIDYETRLEKAQAFVRGSR
B3: ftsW I124P (protein)
chain: MRLSLPRLKMPRLPGFSILVWISTALKGWVMGSREKDTDSLIMYDRTLLWLTFGLAAIGFIMVTSASMPIGQRLTNDPFFFAKRDGVYLILAFILAIITLRLPMEFWQRYSATMLLGSIILLMPVLVVGSSVKGASRWIDLGLLRIQPAELTKLSLFCYIANYLVRKGDEVRNNLRGFLKPMGVILVLAVLLLAQPDLGTVVVLFVTTLAMLFLAGAKLWQFIAIIGMGISAVVLLILAEPYRIRRVTAFWNPWEDPFGSGYQLTQSLMAFGRGELWGQGLGNSVQKLEYLPEAHTDFIFAIIGEELGYVGVVLALLMVFFVAFRAMSIGRKALEIDHRFSGFLACSIGIWFSFQALVNVGAAAGMLPTKGLTLPLISYGGSSLLIMSTAIMMLLRIDYETRLEKAQAFVRGSR
B4: ftsW F300W (protein)
chain: MRLSLPRLKMPRLPGFSILVWISTALKGWVMGSREKDTDSLIMYDRTLLWLTFGLAAIGFIMVTSASMPIGQRLTNDPFFFAKRDGVYLILAFILAIITLRLPMEFWQRYSATMLLGSIILLMIVLVVGSSVKGASRWIDLGLLRIQPAELTKLSLFCYIANYLVRKGDEVRNNLRGFLKPMGVILVLAVLLLAQPDLGTVVVLFVTTLAMLFLAGAKLWQFIAIIGMGISAVVLLILAEPYRIRRVTAFWNPWEDPFGSGYQLTQSLMAFGRGELWGQGLGNSVQKLEYLPEAHTDFIWAIIGEELGYVGVVLALLMVFFVAFRAMSIGRKALEIDHRFSGFLACSIGIWFSFQALVNVGAAAGMLPTKGLTLPLISYGGSSLLIMSTAIMMLLRIDYETRLEKAQAFVRGSR
B5: gapA F18Q (protein)
chain: MTIKVGINGFGRIGRIVQRAAQKRSDIEIVAINDLLDADYMAYMLKYDSTHGRFDGTVEVKDGHLIVNGKKIRVTAERDPANLKWDEVGVDVVAEATGLFLTDETARKHITAGAKKVVMTGPSKDNTPMFVKGANFDKYAGQDIVSNASCTTNCLAPLAKVINDNFGIIEGLMTTVHATTATQKTVDGPSHKDWRGGRGASQNIIPSSTGAAKAVGKVLPELNGKLTGMAFRVPTPNVSVVDLTVRLEKAATYEQIKAAVKAAAEGEMKGVLGYTEDDVVSTDFNGEVCTSVFDAKAGIALNDNFVKLVSWYDNETGYSNKVLDLIAHISK
B6: gapA M119Q (protein)
chain: MTIKVGINGFGRIGRIVFRAAQKRSDIEIVAINDLLDADYMAYMLKYDSTHGRFDGTVEVKDGHLIVNGKKIRVTAERDPANLKWDEVGVDVVAEATGLFLTDETARKHITAGAKKVVQTGPSKDNTPMFVKGANFDKYAGQDIVSNASCTTNCLAPLAKVINDNFGIIEGLMTTVHATTATQKTVDGPSHKDWRGGRGASQNIIPSSTGAAKAVGKVLPELNGKLTGMAFRVPTPNVSVVDLTVRLEKAATYEQIKAAVKAAAEGEMKGVLGYTEDDVVSTDFNGEVCTSVFDAKAGIALNDNFVKLVSWYDNETGYSNKVLDLIAHISK
B7: ftsY M404W (protein)
chain: MAKEKKRGFFSWLGFGQKEQTPEKETEVQNEQPVVEEIVQAQEPVKASEQAVEEQPQAHTEAEAETFAADVVEVTEQVAESEKAQPEAEVVAQPEPVVEETPEPVAIEREELPLPEDVNAEAVSPEEWQAEAETVEIVEAAEEEAAKEEITDEELETALAAEAAEEAVMVVPPAEEEQPVEEIAQEQEKPTKEGFFARLKRSLLKTKENLGSGFISLFRGKKIDDDLFEELEEQLLIADVGVETTRKIITNLTEGASRKQLRDAEALYGLLKEEMGEILAKVDEPLNVEGKAPFVILMVGVNGVGKTTTIGKLARQFEQQGKSVMLAAGDTFRAAAVEQLQVWGQRNNIPVIAQHTGADSASVIFDAIQAAKARNIDVLIADTAGRLQNKSHLMEELKKIVRVWKKLDVEAPHEVMLTIDASTGQNAVSQAKLFHEAVGLTGITLTKLDGTAKGGVIFSVADQFGIPIRYIGVGERIEDLRPFKADDFIEALFARED

± gives the standard deviation of the averaged measurements. Laboratory Escherichia coli strains with one amino-acid change in an essential protein, pooled on minimal glucose agar with carbenicillin or gentamicin at twice the control MIC (plus kanamycin and chloramphenicol for the plasmids), 48 h. Fold change of barcode share against drug-free plates; higher = less susceptible. Active = above 20 in both replicates (the paper's putatively resistant). '<' = one read or none on drug, '>' = one read or none on a drug-free plate. Shares are relative, so most strains fall below 1 when a few take over. Listed are strains with at least 15 reads on both drug-free plates, and hits; most hits rest on fewer reference reads. Replicate rank correlation about 0.5. Edits are read from barcodes.

The data set has as its target Escherichia coli (laboratory strain). The data set can be described thus: barcode share on antibiotic plates over drug-free plates; higher = less susceptible. The settings on record: antibiotic: gentamicin; 2× MIC (MIC 0.45 µg/mL). The protocol: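 A pool of E. coli strains, each edited to carry one amino-acid change in an essential protein, was grown for 48 h on minimal glucose agar with or without antibiotic; strain barcodes were sequenced; mean of two replicates.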
B1: the “fold change of barcode share” value was below 0.0196.

Regarding B2, the “fold change of barcode share” value was below 0.0191.

For B3, the “fold change of barcode share” value was below 0.0167.

Consider B4, for which the “fold change of barcode share” value was below 0.0203.

Regarding B5, the “fold change of barcode share” value was below 0.0195.

As to B6, the “fold change of barcode share” value amounted to 0.018 ± 0.0096.

Regarding B7, the “fold change of barcode share” value was below 0.0185.
